Data from the supplement of paper PMC12217912.
The list shows a part of the results. The full chains were built here from the parent and the listed change. Inactive controls read about 0.05.

B1: TEV protease; numbered along this chain (parent)
chain: MGESLFKGPRDYNPISSSICHLTNESDGHTTSLYGIGFGPFIITNKHLFRRNNGTLVVQSLHGVFKVKDTTTLQQHLVDGRDMIIIRMPKDFPPFPQKLKFREPQREERICLVTTNFQTKSMSSMVSDTSCTFPSGDGIFWKHWIQTKDGQCGSPLVSTRDGFIVGIHSASNFTNTNNYFTSVPKNFMELLTNQEAQQWVSGWRLNADSVLWGGHKVFMVKPEEPFQPVKEATQL

Variants of: B1
Assay: raw area under fraction-flipped curve 0-4 h after induction (AUC4h, not background-subtracted), DNA-recorder readout of cleavage of the substrate (dimensionless); higher = more cleavage of the substrate by the protease variant
Conditions: temperature: 34 °C; time window: 0-4 h after rhamnose induction
Method: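 In vivo DNA recorder in E. coli TOP10(DE3) ΔrhaA at 34 °C. Each TEVp single-site mutant (parent TEVp 0) is paired with a single-site variant of the 7-mer TEVs (canonical ENLYFQ|S). The substrate sits between flexible linkers in a Bxb1-sfGFP-TEVs-SsrA fusion, so cleavage stabilises Bxb1 and speeds flipping of a recombination array, read by NGS. The value is the raw area under the fraction-flipped curve over 0-4 h after rhamnose induction (AUC4h), with ≥20 reads per time point. It is not background-subtracted; inactive controls average about 0.047.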
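Note: Bxb1 expression induced with 0.2% (w/v) L-rhamnose at OD600 near 0.5, cultures sampled hourly, flipped fraction per protease–substrate barcode pair counted by paired-end Illumina sequencing.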

Variant | area with substrate ECLYFQS | area with substrate EELYFQS | area with substrate EFLYFQS | area with substrate EKLYFQS | area with substrate ESLYFQS | area with substrate EVLYFQS | area with substrate EDLYFQS | area with substrate EILYFQS | area with substrate EMLYFQS | area with substrate EPLYFQS | area with substrate EQLYFQS | area with substrate ERLYFQS | area with substrate ETLYFQS | area with substrate EYLYFQS | area with substrate EHLYFQS | area with substrate ELLYFQS | area with substrate EWLYFQS | area with substrate EGLYFQS
MGESLFKGPRDYNPISSSICHLTNESDGHTTSLYGIGFGPFIITNKHLFRRNNGTLVVQSLHGVFKVKDTTTLQQHLVDGRDMIIIRMPKDFPPFPQKLKFYEPQREERICLVTTNFQTKSMSSMVSDTSCTFPSGDGIFWKHWIQTKDGQCGSPLVSTRDGFIVGIHSASNFTNTNNYFTSVPKNFMELLTNQEAQQWVSGWRLNADSVLWGGHKVFMVKPEEPFQPVKEATQL [R102Y] | 0.0415 | 0.0369 | 0.0485 | 0.0422 | 0.0261 | 0.0504 | – | – | – | – | – | – | – | – | – | – | – | –
MGESLFKGPRDYNPISSSICHLTNESDGHTTSLYGIGFGPFIITNKHLFRRNNGTLVVQSLHGVFKVKDTTTLQQHLVDGRDMIIIRMPKDFPPFPQKLKWREPQREERICLVTTNFQTKSMSSMVSDTSCTFPSGDGIFWKHWIQTKDGQCGSPLVSTRDGFIVGIHSASNFTNTNNYFTSVPKNFMELLTNQEAQQWVSGWRLNADSVLWGGHKVFMVKPEEPFQPVKEATQL [F101W] | 0.109 | 0.163 | – | – | 0.118 | 0.107 | 0.135 | 0.107 | 0.106 | 0.132 | 0.0989 | 0.118 | 0.118 | 0.113 | – | – | – | –
MGESLFKGPRDYNPISSSICHLTNESDGHTTSLYGIGFGPFIITNKHLFRRNNGTLVVQSLHGEFKVKDTTTLQQHLVDGRDMIIIRMPKDFPPFPQKLKFREPQREERICLVTTNFQTKSMSSMVSDTSCTFPSGDGIFWKHWIQTKDGQCGSPLVSTRDGFIVGIHSASNFTNTNNYFTSVPKNFMELLTNQEAQQWVSGWRLNADSVLWGGHKVFMVKPEEPFQPVKEATQL [V64E] | 0.0968 | – | 0.11 | 0.141 | 0.102 | 0.0949 | 0.128 | 0.0941 | 0.136 | 0.177 | – | – | – | 0.0818 | 0.118 | 0.122 | 0.0953 | –
MGESLFKGPRDYNPISSSICHLTNESDGHTTSLYGIGFGPFIITNKHLFRRNNGTLVVQSLHGGFKVKDTTTLQQHLVDGRDMIIIRMPKDFPPFPQKLKFREPQREERICLVTTNFQTKSMSSMVSDTSCTFPSGDGIFWKHWIQTKDGQCGSPLVSTRDGFIVGIHSASNFTNTNNYFTSVPKNFMELLTNQEAQQWVSGWRLNADSVLWGGHKVFMVKPEEPFQPVKEATQL [V64G] | 0.106 | – | – | 0.105 | 0.0904 | 0.0894 | – | – | 0.112 | – | 0.104 | – | – | 0.0971 | – | – | – | –
MGESLFKGPRDYNPISSSICHLTNESDGHTTSLYGIGFGPFIITNKHLFRRNNGTLVVQSLHGVFKVKDTTTLQQHLVDARDMIIIRMPKDFPPFPQKLKFREPQREERICLVTTNFQTKSMSSMVSDTSCTFPSGDGIFWKHWIQTKDGQCGSPLVSTRDGFIVGIHSASNFTNTNNYFTSVPKNFMELLTNQEAQQWVSGWRLNADSVLWGGHKVFMVKPEEPFQPVKEATQL [G80A] | 0.0952 | 0.087 | – | 0.117 | 0.071 | – | 0.114 | 0.0959 | – | – | 0.0815 | 0.108 | 0.0983 | 0.116 | – | 0.09 | 0.101 | 0.107
MGESLFKGPRDYNPISSSICHLTNESDGHTTSLYGIGFGPFIITNKHLFRRNNGTLVVQSLHGVFKVKDTTTLQQHLVDMRDMIIIRMPKDFPPFPQKLKFREPQREERICLVTTNFQTKSMSSMVSDTSCTFPSGDGIFWKHWIQTKDGQCGSPLVSTRDGFIVGIHSASNFTNTNNYFTSVPKNFMELLTNQEAQQWVSGWRLNADSVLWGGHKVFMVKPEEPFQPVKEATQL [G80M] | 0.107 | – | 0.104 | – | 0.111 | 0.0676 | 0.121 | – | – | 0.0966 | 0.125 | 0.112 | – | 0.161 | 0.107 | – | 0.0768 | –
MGESLFKGPRDYNPISSSICHLTNESDGHTTSLYGIGFGPFIITNNHLFRRNNGTLVVQSLHGVFKVKDTTTLQQHLVDGRDMIIIRMPKDFPPFPQKLKFREPQREERICLVTTNFQTKSMSSMVSDTSCTFPSGDGIFWKHWIQTKDGQCGSPLVSTRDGFIVGIHSASNFTNTNNYFTSVPKNFMELLTNQEAQQWVSGWRLNADSVLWGGHKVFMVKPEEPFQPVKEATQL [K46N] | 0.0769 | 0.0616 | – | 0.0855 | 0.0607 | – | – | 0.0602 | 0.0747 | 0.0944 | 0.0744 | 0.0626 | – | 0.056 | – | – | – | 0.0697
MGESLFKGPRDYNPISSSICHLTNESDGHTTSLYGIGFGPFIITNKHLFRRNNGTLVVQSLHGVFKVKDTTKLQQHLVDGRDMIIIRMPKDFPPFPQKLKFREPQREERICLVTTNFQTKSMSSMVSDTSCTFPSGDGIFWKHWIQTKDGQCGSPLVSTRDGFIVGIHSASNFTNTNNYFTSVPKNFMELLTNQEAQQWVSGWRLNADSVLWGGHKVFMVKPEEPFQPVKEATQL [T72K] | 0.125 | 0.121 | 0.143 | 0.116 | 0.104 | 0.0956 | – | 0.0991 | – | 0.111 | 0.123 | 0.131 | 0.155 | – | – | 0.0922 | 0.0733 | 0.121
MGESLFKGPRDYNPISSSICHLTNESDGHTTSLYGIGFGPFIITNKHLFRRNNGTLVVQTLHGVFKVKDTTTLQQHLVDGRDMIIIRMPKDFPPFPQKLKFREPQREERICLVTTNFQTKSMSSMVSDTSCTFPSGDGIFWKHWIQTKDGQCGSPLVSTRDGFIVGIHSASNFTNTNNYFTSVPKNFMELLTNQEAQQWVSGWRLNADSVLWGGHKVFMVKPEEPFQPVKEATQL [S60T] | 0.088 | 0.123 | 0.104 | 0.102 | 0.108 | 0.0977 | – | 0.0994 | – | – | 0.113 | 0.0974 | – | 0.0908 | 0.101 | 0.113 | – | –
